Reference: the supplement of paper PMC12217912
The other results are listed elsewhere or left out. The full chains were built here from the parent and the listed change. Inactive controls read about 0.05.

B1: TEV protease; numbered along this chain (parent)
chain: MGESLFKGPRDYNPISSSICHLTNESDGHTTSLYGIGFGPFIITNKHLFRRNNGTLVVQSLHGVFKVKDTTTLQQHLVDGRDMIIIRMPKDFPPFPQKLKFREPQREERICLVTTNFQTKSMSSMVSDTSCTFPSGDGIFWKHWIQTKDGQCGSPLVSTRDGFIVGIHSASNFTNTNNYFTSVPKNFMELLTNQEAQQWVSGWRLNADSVLWGGHKVFMVKPEEPFQPVKEATQL

Variants of: B1
Assay: raw area under fraction-flipped curve 0-4 h after induction (AUC4h, not background-subtracted), DNA-recorder readout of cleavage of the substrate (dimensionless); higher = more cleavage of the substrate by the protease variant
Details: temperature: 34 °C; time window: 0-4 h after rhamnose induction
Description: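 In vivo DNA recorder in E. coli TOP10(DE3) ΔrhaA at 34 °C. Each TEVp single-site mutant (parent TEVp 0) is paired with a single-site variant of the 7-mer TEVs (canonical ENLYFQ|S). The substrate sits between flexible linkers in a Bxb1-sfGFP-TEVs-SsrA fusion, so cleavage stabilises Bxb1 and speeds flipping of a recombination array, read by NGS. The value is the raw area under the fraction-flipped curve over 0-4 h after rhamnose induction (AUC4h), with ≥20 reads per time point. It is not background-subtracted; inactive controls average about 0.047.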
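Further: Bxb1 expression induced with 0.2% (w/v) L-rhamnose at OD600 near 0.5, cultures sampled hourly, flipped fraction per protease–substrate barcode pair counted by paired-end Illumina sequencing.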

Row | Variant | area with substrate ENLYFAS | area with substrate ENLYFCS | area with substrate ENLYFES | area with substrate ENLYFIS | area with substrate ENLYFKS | area with substrate ENLYFLS | area with substrate ENLYFNS | area with substrate ENLYFPS | area with substrate ENLYFRS | area with substrate ENLYFTS | area with substrate ENLYFVS | area with substrate ENLYFYS | area with substrate ENLYFDS | area with substrate ENLYFFS | area with substrate ENLYFGS | area with substrate ENLYFHS | area with substrate ENLYFWS | area with substrate ENLYFMS
1 | MGESLFKGPRDYNPISSSICHLTNESDYHTTSLYGIGFGPFIITNKHLFRRNNGTLVVQSLHGVFKVKDTTTLQQHLVDGRDMIIIRMPKDFPPFPQKLKFREPQREERICLVTTNFQTKSMSSMVSDTSCTFPSGDGIFWKHWIQTKDGQCGSPLVSTRDGFIVGIHSASNFTNTNNYFTSVPKNFMELLTNQEAQQWVSGWRLNADSVLWGGHKVFMVKPEEPFQPVKEATQL [G28Y] | 0.0639 | 0.0493 | 0.0938 | 0.0538 | 0.0469 | 0.0634 | 0.0694 | 0.0493 | 0.04 | 0.0608 | 0.0531 | 0.0501 | – | – | – | – | – | –
2 | MGESLFKGPRDYNPISSGICHLTNESDGHTTSLYGIGFGPFIITNKHLFRRNNGTLVVQSLHGVFKVKDTTTLQQHLVDGRDMIIIRMPKDFPPFPQKLKFREPQREERICLVTTNFQTKSMSSMVSDTSCTFPSGDGIFWKHWIQTKDGQCGSPLVSTRDGFIVGIHSASNFTNTNNYFTSVPKNFMELLTNQEAQQWVSGWRLNADSVLWGGHKVFMVKPEEPFQPVKEATQL [S18G] | 0.0498 | 0.0609 | 0.0443 | 0.0583 | 0.0453 | – | 0.0559 | 0.0554 | 0.0687 | – | 0.0513 | 0.0449 | 0.0596 | 0.0981 | 0.0447 | 0.0626 | 0.0608 | –
3 | MGESLFKGPRDYNPISSSICHLTNESDGHTISLYGIGFGPFIITNKHLFRRNNGTLVVQSLHGVFKVKDTTTLQQHLVDGRDMIIIRMPKDFPPFPQKLKFREPQREERICLVTTNFQTKSMSSMVSDTSCTFPSGDGIFWKHWIQTKDGQCGSPLVSTRDGFIVGIHSASNFTNTNNYFTSVPKNFMELLTNQEAQQWVSGWRLNADSVLWGGHKVFMVKPEEPFQPVKEATQL [T31I] | 0.0592 | 0.0711 | 0.0743 | 0.0605 | – | – | 0.0675 | – | 0.079 | 0.0588 | – | 0.0525 | – | – | 0.0408 | 0.0614 | 0.0715 | 0.0584
4 | MFESLFKGPRDYNPISSSICHLTNESDGHTTSLYGIGFGPFIITNKHLFRRNNGTLVVQSLHGVFKVKDTTTLQQHLVDGRDMIIIRMPKDFPPFPQKLKFREPQREERICLVTTNFQTKSMSSMVSDTSCTFPSGDGIFWKHWIQTKDGQCGSPLVSTRDGFIVGIHSASNFTNTNNYFTSVPKNFMELLTNQEAQQWVSGWRLNADSVLWGGHKVFMVKPEEPFQPVKEATQL [G2F] | 0.0484 | 0.056 | – | 0.0488 | – | – | – | 0.0474 | – | – | 0.0459 | – | 0.0799 | 0.0816 | 0.0464 | 0.101 | – | 0.0657
5 | MYESLFKGPRDYNPISSSICHLTNESDGHTTSLYGIGFGPFIITNKHLFRRNNGTLVVQSLHGVFKVKDTTTLQQHLVDGRDMIIIRMPKDFPPFPQKLKFREPQREERICLVTTNFQTKSMSSMVSDTSCTFPSGDGIFWKHWIQTKDGQCGSPLVSTRDGFIVGIHSASNFTNTNNYFTSVPKNFMELLTNQEAQQWVSGWRLNADSVLWGGHKVFMVKPEEPFQPVKEATQL [G2Y] | 0.0555 | 0.0518 | 0.0868 | – | 0.0577 | 0.0611 | – | – | – | – | – | 0.0622 | – | 0.0775 | 0.0502 | 0.0648 | – | 0.09
6 | MHESLFKGPRDYNPISSSICHLTNESDGHTTSLYGIGFGPFIITNKHLFRRNNGTLVVQSLHGVFKVKDTTTLQQHLVDGRDMIIIRMPKDFPPFPQKLKFREPQREERICLVTTNFQTKSMSSMVSDTSCTFPSGDGIFWKHWIQTKDGQCGSPLVSTRDGFIVGIHSASNFTNTNNYFTSVPKNFMELLTNQEAQQWVSGWRLNADSVLWGGHKVFMVKPEEPFQPVKEATQL [G2H] | 0.0689 | – | 0.0594 | – | 0.054 | 0.048 | – | – | 0.0798 | – | – | – | – | 0.0776 | – | – | – | 0.0686
7 | MAESLFKGPRDYNPISSSICHLTNESDGHTTSLYGIGFGPFIITNKHLFRRNNGTLVVQSLHGVFKVKDTTTLQQHLVDGRDMIIIRMPKDFPPFPQKLKFREPQREERICLVTTNFQTKSMSSMVSDTSCTFPSGDGIFWKHWIQTKDGQCGSPLVSTRDGFIVGIHSASNFTNTNNYFTSVPKNFMELLTNQEAQQWVSGWRLNADSVLWGGHKVFMVKPEEPFQPVKEATQL [G2A] | 0.0519 | – | – | – | – | – | – | – | 0.0571 | 0.084 | – | – | – | – | – | – | – | 0.0565
8 | MTESLFKGPRDYNPISSSICHLTNESDGHTTSLYGIGFGPFIITNKHLFRRNNGTLVVQSLHGVFKVKDTTTLQQHLVDGRDMIIIRMPKDFPPFPQKLKFREPQREERICLVTTNFQTKSMSSMVSDTSCTFPSGDGIFWKHWIQTKDGQCGSPLVSTRDGFIVGIHSASNFTNTNNYFTSVPKNFMELLTNQEAQQWVSGWRLNADSVLWGGHKVFMVKPEEPFQPVKEATQL [G2T] | 0.0407 | 0.0654 | – | – | – | – | – | 0.0677 | 0.0757 | 0.0583 | – | – | 0.0817 | – | – | – | 0.0506 | 0.0614
9 | MKESLFKGPRDYNPISSSICHLTNESDGHTTSLYGIGFGPFIITNKHLFRRNNGTLVVQSLHGVFKVKDTTTLQQHLVDGRDMIIIRMPKDFPPFPQKLKFREPQREERICLVTTNFQTKSMSSMVSDTSCTFPSGDGIFWKHWIQTKDGQCGSPLVSTRDGFIVGIHSASNFTNTNNYFTSVPKNFMELLTNQEAQQWVSGWRLNADSVLWGGHKVFMVKPEEPFQPVKEATQL [G2K] | 0.0514 | 0.0587 | 0.0681 | 0.0529 | 0.0559 | 0.062 | 0.0666 | 0.0584 | – | 0.0562 | – | – | 0.0563 | 0.068 | – | – | – | –
10 | MGESLFYGPRDYNPISSSICHLTNESDGHTTSLYGIGFGPFIITNKHLFRRNNGTLVVQSLHGVFKVKDTTTLQQHLVDGRDMIIIRMPKDFPPFPQKLKFREPQREERICLVTTNFQTKSMSSMVSDTSCTFPSGDGIFWKHWIQTKDGQCGSPLVSTRDGFIVGIHSASNFTNTNNYFTSVPKNFMELLTNQEAQQWVSGWRLNADSVLWGGHKVFMVKPEEPFQPVKEATQL [K7Y] | 0.0567 | – | 0.0776 | 0.0607 | – | 0.0565 | 0.0634 | – | – | – | – | – | – | – | – | 0.0689 | 0.0434 | –
